Data: paper PMC12095047, “Transport of phenoxyacetic acid herbicides by PIN-FORMED auxin transporters” (Nature Plants, 2025)
“And” between values parts separate entries of the source, which are not always exact repeats. Identical values can stand only once. Like-named read-outs stand apart in the source and are kept apart here. The source gives many values for each of these; only a part stands here.

What was measured:
Type in all cases: biochemical
[1] = target: T1, A. thaliana PIN8 (Arabidopsis thaliana, UniProt Q9LFP6); assay: SSM electrophysiology, peak current response on PIN8 proteoliposomes; conditions: 2 mM 4-CPA, individual sensors
T1 construct: made in house
T1 sequence (Q9LFP6 1-367): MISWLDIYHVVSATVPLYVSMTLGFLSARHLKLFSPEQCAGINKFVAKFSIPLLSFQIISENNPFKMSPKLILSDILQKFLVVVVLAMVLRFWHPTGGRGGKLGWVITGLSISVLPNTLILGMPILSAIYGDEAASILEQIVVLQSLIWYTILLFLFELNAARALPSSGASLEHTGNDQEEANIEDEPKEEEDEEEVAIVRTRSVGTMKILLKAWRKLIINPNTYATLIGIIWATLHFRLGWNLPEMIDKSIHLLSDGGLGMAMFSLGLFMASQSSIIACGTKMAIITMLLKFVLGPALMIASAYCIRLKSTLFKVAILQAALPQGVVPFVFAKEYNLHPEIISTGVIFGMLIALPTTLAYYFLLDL
Description: (§1) SSM, using a SURFE2R N1 from Nanion Technologies, was conducted as described. In brief, soy polar lipid mix (38% phosphatidyl choline, 30% phosphatidyl ethanolamine, 18% phosphatidyl inositol, 7% phosphatidic acid and 7% other soy lipids) and 1-palmitoyl-2-oleoyl-sn-glycero-3-phosphocholin were purchased from Avanti. Liposomes were prepared in Ringer solution without Ca^2+ (115 mM NaCl, 2.5 mM KCl, 1 mM NaHCO3, 10 mM HEPES pH7.4, 1 mM MgCl2) and homogenized using a Lipsofast (Avestin) with a […]. Triton X-100 was added to the liposomes to a final concentration of 1% (v/v). Protein was added to liposomes to a calculated lipid-to-protein ratio (LPR) of 10 unless stated otherwise. The detergent was removed using 400 mg ml^−1 Bio Beads (BioRad) overnight at 4 °C in a rotary shaker. Proteoliposomes were frozen in liquid nitrogen and kept at −80 °C until use. Proteoliposomes were diluted 1:5 in Ringer solution without Ca^2+, sonicated five times and then applied to the sensors by centrifugation (30 min, 3,000 g, 4 °C). Non-activating buffer was Ringer solution without Ca^2+ as described unless specified otherwise, and activating buffer contained the substrate of interest. In most instances we used a single-solution exchange experiment. In this case proteoliposomes, immobilized on the supported membrane, are kept in non-activating buffer as specified. At the beginning of the experiment the non-activating buffer is replaced with fresh identical non-activating buffer, and after 1 s, activating buffer (same buffer containing substrate) is added. After another second, the buffer is replaced with non-activating buffer again. Current response is recorded throughout the entire 3 s. For competition or inhibition, the respective compound was present in non-activating and activating solutions. Each experiment was performed on at least two individual sensors. On each sensor each measurement consists of three technical replicates where the mean is calculated. KD values were determined as described previously. Briefly, the binding current induced by 100 µM NPA was recorded in the presence of different concentrations of the substrate under investigation ranging between 0 µM and 1,000 µM present in the activating solution and the non-activating solution (Extended Data Fig. 5b). […] The maximum peak current was then plotted as a function of the concentration of the substrate under investigation and plotted against the degree of inhibition and fitted with a one-site binding model using GraphPad Prism V10.4.1 The half maximal concentration corresponds to the KD of the substrate under investigation.

[2] = target: T2, PIN8 Y150F (Arabidopsis thaliana, UniProt Q9LFP6, Y150F); conditions: individual sensors
T2 construct: made in house
T2 sequence (Q9LFP6 whole entry Y150F): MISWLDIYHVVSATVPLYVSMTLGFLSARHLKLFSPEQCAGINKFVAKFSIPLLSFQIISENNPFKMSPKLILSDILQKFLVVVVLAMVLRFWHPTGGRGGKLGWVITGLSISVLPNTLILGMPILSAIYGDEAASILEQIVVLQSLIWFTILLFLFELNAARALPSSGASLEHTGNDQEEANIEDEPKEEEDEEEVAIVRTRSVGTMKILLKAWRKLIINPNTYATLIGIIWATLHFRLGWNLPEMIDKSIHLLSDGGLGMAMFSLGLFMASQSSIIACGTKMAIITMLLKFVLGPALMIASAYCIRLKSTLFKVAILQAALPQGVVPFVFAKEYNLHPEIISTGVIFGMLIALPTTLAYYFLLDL
Description: as §1
(§2) The protocol for expression and purification of AtPIN8 protein (Uniprot: Q9LFP6) in lauryl maltose neopentyl glycol was described previously. All point mutants were generated using Q5 Site-Directed mutagenesis kit (New England Biolabs). The C-flat Holey Carbon grids (CF-1.2/1.3, Cu-300 mesh) were glow-discharged for 45 s at 15 mA in a GloQube Plus (Quorum). […] After 1 h of incubation on ice, the sample was centrifuged at 16,000 g for 15 min before blotting to remove precipitation. A drop of 4 µl of each sample was applied to the glow-discharged grids, blotted with a Vitrobot Mark IV (ThermoFisher Scientific) using the following settings (temperature 4 °C, 100% humidity, blot time of 4 s, blot force −1) and vitrified in liquid ethane.

[3] = target: T3, PIN8 N223A (Arabidopsis thaliana, UniProt Q9LFP6, N223A); conditions: individual sensors
T3 construct: made in house
T3 sequence (Q9LFP6 whole entry N223A): as the sequence (Q9LFP6 whole entry Y150F) above, with F150Y, N223A counted along it
Description: as §1, §2

[4] = target: T4, PIN8 I51Y (Arabidopsis thaliana, UniProt Q9LFP6, I51Y); conditions: individual sensors
T4 construct: made in house
T4 sequence (Q9LFP6 whole entry I51Y): as the sequence (Q9LFP6 whole entry Y150F) above, with I51Y, F150Y counted along it
Description: as §1, §2

[5] = target: T5, PIN8 S266A (Arabidopsis thaliana, UniProt Q9LFP6, S266A); conditions: individual sensors
T5 construct: made in house
T5 sequence (Q9LFP6 whole entry S266A): as the sequence (Q9LFP6 whole entry Y150F) above, with F150Y, S266A counted along it
Description: as §1, §2

[6] = target: T6, PIN8 S55A/S146A (Arabidopsis thaliana, UniProt Q9LFP6, S146A/S55A); conditions: individual sensors
T6 construct: made in house
T6 sequence (Q9LFP6 whole entry S55A/S146A): as the sequence (Q9LFP6 whole entry Y150F) above, with S55A, S146A, F150Y counted along it
Description: as §1, §2

O=C(O)COc1ccc(Cl)cc1 [4-CPA, 4-chlorophenoxyacetic acid] was tested. Which Peak current ([1]; absence of NPA) did it give?
Its Peak current is 9.1334 nA.

What about the Peak current ([1]; presence of 20 µM NPA) of the same compound?
The Peak current was 3.899 nA and 2.079 nA.

What about the Peak current ([2]; 5 µM substrate) of the same compound?
Its Peak current is 0.1124 nA and 0.2742 nA and 0.2438 nA and 0.4634 nA.

What about the Peak current ([2]; 20 µM substrate) of the same compound?
Its Peak current is 0.214 nA and 0.2611 nA and 0.2146 nA and 4.15e-5 nA.

What about the Peak current ([2]; 50 µM substrate) of the same compound?
The Peak current was 0.6792 nA and 0.8269 nA and 0.6826 nA and 1.119 nA.

And the Peak current ([2]; 100 µM substrate)?
Its Peak current is 0.933 nA and 0.9667 nA and 0.781 nA and 0.8667 nA.

What about the Peak current ([2]; 500 µM substrate) of the same compound?
The Peak current was 2.503 nA and 2.048 nA and 1.77 nA and 1.668 nA.

And the Peak current ([2]; 1000 µM substrate)?
Its Peak current is 3.482 nA and 2.773 nA and 2.407 nA and 2.3466 nA.

What about the Peak current ([2]; 2000 µM substrate) of the same compound?
The Peak current was 4.702 nA and 3.788 nA and 3.486 nA and 3.842 nA.

What about the Peak current ([3]; 5 µM substrate) of the same compound?
The Peak current was 0.008528 nA and 0.01312 nA and 0.006345 nA.

What about the Peak current ([3]; 20 µM substrate) of the same compound?
Its Peak current is 0.007003 nA and 0.02508 nA and 0.01069 nA.

What about the Peak current ([3]; 50 µM substrate) of the same compound?
Its Peak current is 0.006032 nA and 0.01061 nA and 0.01155 nA.

And the Peak current ([3]; 100 µM substrate)?
Its Peak current is 0.005994 nA and 0.02204 nA and 0.01745 nA.

What about the Peak current ([3]; 500 µM substrate) of the same compound?
Its Peak current is 0.6582 nA and 0.7134 nA and 0.5332 nA.

And the Peak current ([3]; 1000 µM substrate)?
The Peak current was 1.248 nA and 1.323 nA and 1.1 nA.

And the Peak current ([3]; 2000 µM substrate)?
The Peak current was 2.167 nA and 2.239 nA and 2.0202 nA.

And the Peak current ([4]; 5 µM substrate)?
Its Peak current is 0.104 nA and 0.148 nA and 0.123 nA.

And the Peak current ([4]; 20 µM substrate)?
Its Peak current is 0.091 nA and 0.096 nA and 0.095 nA.

And the Peak current ([4]; 50 µM substrate)?
The Peak current was 0.355 nA and 0.405 nA and 0.364 nA.

What about the Peak current ([4]; 100 µM substrate) of the same compound?
Its Peak current is 0.372 nA and 0.42 nA and 0.352 nA.

What about the Peak current ([4]; 500 µM substrate) of the same compound?
The Peak current was 1.098 nA and 1.106 nA and 0.904 nA.

And the Peak current ([4]; 1000 µM substrate)?
The Peak current was 1.456 nA and 1.385 nA and 1.078 nA.

And the Peak current ([4]; 2000 µM substrate)?
The Peak current was 2.355 nA and 2.296 nA and 1.757 nA.

What about the Peak current ([5]; 5 µM substrate) of the same compound?
The Peak current was 0.02065 nA and 0.01524 nA and 0.01916 nA.

And the Peak current ([5]; 20 µM substrate)?
The Peak current was 0.02584 nA and 0.00943 nA and 0.01896 nA.

And the Peak current ([5]; 50 µM substrate)?
The Peak current was 0.03178 nA and 0.1167 nA and 0.03945 nA.

What about the Peak current ([5]; 100 µM substrate) of the same compound?
Its Peak current is 0.1687 nA and 0.4309 nA and 0.2888 nA.

And the Peak current ([5]; 500 µM substrate)?
The Peak current was 1.3803 nA and 2.021 nA and 0.7864 nA.

And the Peak current ([5]; 1000 µM substrate)?
Its Peak current is 2.1491 nA and 3.295 nA and 1.502 nA.

What about the Peak current ([5]; 2000 µM substrate) of the same compound?
Its Peak current is 3.257 nA and 4.824 nA and 2.236 nA.

And the Peak current ([6]; 5 µM substrate)?
The Peak current was 0.7856 nA and 0.8117 nA and 0.7294 nA.

And the Peak current ([6]; 20 µM substrate)?
Its Peak current is 2.368 nA and 2.72 nA and 2.487 nA.

And the Peak current ([6]; 50 µM substrate)?
The Peak current was 3.925 nA and 4.585 nA and 4.086 nA.

And the Peak current ([6]; 100 µM substrate)?
Its Peak current is 5.1433 nA and 6.022 nA and 5.257 nA.

And the Peak current ([6]; 500 µM substrate)?
Its Peak current is 7.88 nA and 9.495 nA and 8.2346 nA.

What about the Peak current ([6]; 1000 µM substrate) of the same compound?
The Peak current was 8.927 nA and 10.5916 nA and 9.419 nA.

And the Peak current ([6]; 2000 µM substrate)?
Its Peak current is 9.8278 nA and 11.4999 nA and 10.4608 nA.
